Measurements taken from the supplement of paper PMC9174493.
This is one part of the list. Single values of this set are uncertain. Values with irradiation are relative to irradiated vehicle.

Experiments:
A549-Dual [1] = assay: NF-kB reporter (SEAP) activity, viability-corrected, relative to vehicle (fold change vs vehicle); higher = more activation of STING-IRF / NF-kB immune response reporter; details: 10 µM
A549-Dual [2] = assay: ISRE reporter (Lucia luciferase) activity, viability-corrected, relative to vehicle (fold change vs vehicle); higher = more activation of STING-IRF / NF-kB immune response reporter; details: 10 µM
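Throughout, for NF-kB reporter (SEAP) activity, viability-corrected, relative to vehicle: viability correction based on the alamar blue assay, with concentrations leaving 10% survival or less dropped.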

Structure (SMILES)	NF-kB reporter (A549-Dual [1]; irradiation: 8 Gy/4 fr)	NF-kB reporter (A549-Dual [1]; irradiation: none)	ISRE reporter (A549-Dual [2]; irradiation: 8 Gy/4 fr)	ISRE reporter (A549-Dual [2]; irradiation: none)
Nc1nc(N)nc(-c2cc(Cl)ccc2Cl)n1 [Irsogladine]	0.858	0.951	0.961	0.777
CN(C)c1ccc(O)c2c1CC1CC3C(N(C)C)C(O)=C(C(N)=O)C(=O)C3(O)C(O)=C1C2=O.Cl (centres undefined) [Minocycline HCl]	0.922	0.854	0.742	1
CC(C)=C1C/C=C(\C)CC/C=C(\C)CC1=O [Germacrone]	1.06	1.11	0.922	0.805
Cc1nc2n(c(=O)c1CCN1CCC(c3noc4cc(F)ccc34)CC1)CCCC2O (centres undefined) [Paliperidone]	1.02	1.08	0.82	0.547
O=C(OC1CN2CCC1CC2)N1CCc2ccccc2C1c1ccccc1 (centres undefined) [Solifenacin]	0.86	0.761	0.962	1.32
O=C(NC(CO)C(O)c1ccc([N+](=O)[O-])cc1)C(Cl)Cl (centres undefined) [Chloramphenicol]	1.05	1.14	0.973	0.898
COC(=O)C1=C(C)NC(C)=C(C(=O)OCCN2CCN(C(c3ccccc3)c3ccccc3)CC2)C1c1cccc([N+](=O)[O-])c1.Cl.Cl (centres undefined) [Manidipine 2HCl]	0.579	1.26	0.628	1.68
CC(=O)NS(=O)(=O)c1ccc(N)cc1 [Sulfacetamide]	0.846	0.837	0.853	0.645
COc1cc(/C=C/C(=O)[O-])ccc1O.[Na+] [Sodium ferulate]	0.978	1.57	0.728	1.11
CCS(=O)(=O)CCn1c([N+](=O)[O-])cnc1C [Tinidazole]	1	0.987	0.895	0.835
N=C(N)NCCC[C@H](N)C(=O)O [L-arginine]	1.3	0.948	1.34	1.06
Cl.Cl.Cl.Cl.NCCCNCCCCNCCCN [Spermine Tetrahydrochloride]	0.855	0.684	0.879	0.585
N[C@@H](CS)C(=O)O [L-cysteine]	0.769	0.712	0.729	0.616
OC[C@@H](O)[C@@H](O)[C@H](O)[C@H](O)CO [D-Mannitol]	0.736	0.977	0.97	0.929
COC1/C=C/OC2(C)Oc3c(C)c(O)c4c(c3C2=O)C2=NC3(CCN(CC(C)C)CC3)NC2=C(NC(=O)/C(C)=C/C=C/C(C)C(O)C(C)C(O)C(C)C(OC(C)=O)C1C)C4=O (centres undefined) [Rifabutin]	1.1	1.22	1.43	1.38
CN(C)CC/C=C1/c2ccccc2Sc2ccc(Cl)cc21.Cl [Chlorprothixene hydrochloride]	0.955	1.51	0.833	1.13
NS(=O)(=O)c1cc(C(=O)O)c(NCc2ccco2)cc1Cl [Furosemide]	0.806	1.07	1.01	0.909
O.O.O=c1c(O)c(-c2ccc(O)c(O)c2)oc2cc(O)cc(O)c12 [Quercetin Dihydrate]	0.812	0.698	0.426	0.369
O=C(CS(=O)Cc1ccco1)NC/C=C\COc1cc(CN2CCCCC2)ccn1 (centres undefined) [Lafutidine]	0.893	1.01	0.87	0.842
O=C1Nc2ccccc2C1=O [Isatin]	0.691	0.726	0.55	0.497
CC(C)(Oc1ccc(C2CC2(Cl)Cl)cc1)C(=O)O (centres undefined) [Ciprofibrate]	1.05	0.827	0.931	0.723
CC(C)[N+]1(C)C2CCC1CC(OC(=O)C(CO)c1ccccc1)C2.[Br-] (centres undefined) [Ipratropium Bromide]	0.842	0.919	0.981	0.762
CCCCCCCCCCCCCCCC(=O)OC [Methyl palmitate]	0.69	0.823	0.64	0.661
CC(N)C12CC3CC(CC(C3)C1)C2.Cl (centres undefined) [Rimantadine Hydrochloride]	0.792	0.978	0.95	0.941
CN1CCN(c2cc3c(cc2F)c(=O)c(C(=O)O)cn3-c2ccc(F)cc2)CC1.Cl [Difloxacin hydrochloride]	0.945	0.926	0.807	0.933
O=C1N=C([O-])NC1(c1ccccc1)c1ccccc1.[Na+] [Phenytoin Sodium]	1.35	1.12	1.06	0.938
